Measured values: PubChem BioAssay AID1345083 (National Center for Advancing Translational Sciences (NCATS), 2018)
Screen size: about 94,000 compounds; about 6,200 (6.6%) were called active. The inconclusive results got no clear call from the source; some entries with a clear call stand among them for comparison. The call rests on the fitted dose curve; in most records, active means well fitted inhibition curve with a large enough effect; inconclusive means small, poorly fitted or top-dose-only effect; inactive means flat fitted curve, though single readings scatter. A potency beside an inconclusive call is a rough fit, not a confirmed value.

assay: Cytotoxic Profiling in HEK 293 Cell Line of Diverse Libraries Using Quantitative High-Throughput Screening; conditions: HEK 293 viability, ATP luminescence (CellTiter-Glo), 48-72 h; series mostly up to 115 µM; further: nearly all actives have a fitted effect of over 60% in size
In short: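 HEK 293 cells at 250 cells/well were exposed to compounds by pintool transfer for 48 or 72 hr at 37 degree Celsius, 5% CO2. Viability was read as ATP-coupled luminescence with CellTiter-Glo after 10 min at room temperature.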
Potency means the concentration at half of the fitted maximal effect; tags describe the fitted curve by direction and shape.

| SMILES | Potency |
| --- | --- |
| COC(=O)[C@@H]1Cc2nc[nH]c2CN1Cc1ccc(C)cc1 | inactive |
| O=C1Nc2ccccc2CC12CCCN(Cc1ccc(C(F)(F)F)cc1)C2 (stereo not drawn) | inconclusive: 28.2 µM [inhibitor, full curve] |
| Fc1ccc(-c2cnc3n[nH]c(-c4ccccc4)c3n2)cc1 | inconclusive: 112 µM [inhibitor, partial curve] |
| COCCn1c(=O)n([C@H]2CCCN(C(=O)c3cc4ccccc4[nH]3)C2)c2ncccc21 | inconclusive: 50.1 µM [inhibitor, partial curve, poor fit] |
| CC1Oc2ccc(NC(=O)c3ccc(Cl)cc3)cc2CN(C(C)C)C1=O (stereo not drawn) | inconclusive: 31.6 µM [inhibitor, partial curve, poor fit] |
| O=C1NCCC[C@@H]1NC(=O)[C@@H]1CN(C(=O)C2CCCCC2)CCN1C(=O)c1cccc(F)c1 | inactive |
| CCc1nc2c(=O)n(CC(=O)N3CCN(C4CCCCC4)CC3)nc(C)c2s1 | inactive |
| Cn1cccc1-c1noc(C2CCN(Cc3nc(-c4ccc(F)cc4)no3)CC2)n1 | inconclusive: 39.8 µM [inhibitor, partial curve, poor fit] |
| O=C(NCCc1ccc(Cl)cc1)c1cn2cc(-c3cccc(C(F)(F)F)c3)sc2n1 | inconclusive: 39.8 µM [inhibitor, full curve, poor fit] |
| COc1ccc(-c2[nH]nc3ncc(-c4ccc(C)cc4)nc23)cc1F | active: 44.7 µM |
| O=C(CCc1ccccc1)N1CCOc2ccc(CN3CCc4ccccc4C3)cc2C1 | inconclusive: 50.1 µM [inhibitor, partial curve, poor fit] |
| CCOC(=O)N1CCCC1c1noc2nc(C)cc(C(=O)NC)c12 (stereo not drawn) | inactive |
| CCCc1noc(-c2cn(C3CCN(C(=O)c4ccccc4)CC3)nn2)n1 | inactive |
| N#Cc1ccc(CN2CCc3nc(C(=O)Nc4cccc(C(F)(F)F)c4)oc3CC2)cc1 | inconclusive: 17.8 µM [inhibitor, full curve, poor fit] |
| O=S(=O)(c1ccc(F)cc1)N1CCC(Oc2ccc(-c3noc(C4CC4)n3)cc2)C1 (stereo not drawn) | active: 28.2 µM |
| Cc1nn2c(c1-c1ccccc1C(N)=O)N(C(=O)Cc1cccc(F)c1)CCC2 | inactive |
| CC(=O)N1CC2(Cc3ccccc31)CN(C(=O)C(C)(C)C)C2 | inactive |
| CNC(=O)[C@@H]1CN(C(=O)c2cocn2)C[C@H]1COC | inactive |
| Cc1ccc(C(=O)N2CCN(C(=O)c3nnn4c3COC(c3ccccc3)C4)CC2)s1 (stereo not drawn) | inconclusive: 35.5 µM [inhibitor, full curve] |
| Cc1ccc2c(n1)N(C)[C@H](CO)CCN(Cc1ccc(OC(F)(F)F)cc1)C2 | active: 79.4 µM |
| CCC(=O)N1CCC2(CC1)CC(N(Cc1ccccc1)C1CC1)CCO2 (stereo not drawn) | inactive |
| CNC(=O)c1cc(-c2ccc(F)cc2OC)cc2c1OCCN2Cc1cccnc1 | inconclusive: 112 µM [inhibitor, single point] |

| SMILES | Potency |
| --- | --- |
| Cc1noc(C)c1-c1cc(-c2ccncc2)cn2cncc12 | inconclusive: 126 µM [inhibitor, partial curve] |
| CN(C)c1cccc(C(=O)Nc2ncc(-c3cnn(C)c3)c3c2OCC3)c1 | inactive |
| C[C@H]1[C@@H]2[C@@H](O)C([C@H](C)C(=O)NCc3ccccc3)CC[C@@]2(C)CC[C@@H]1NC(=O)c1ccc(C#N)cc1 (stereo partly drawn) | inconclusive: 56.2 µM [inhibitor, partial curve, poor fit] |
| COc1cccc(CNC(=O)C2c3ccccc3CC(=O)N2C(C)C)c1 (stereo not drawn) | inactive |
| O=C(Nc1ccccc1)N1CCCC(c2nc(CCOc3ccc(F)cc3)no2)C1 (stereo not drawn) | inconclusive: 89.1 µM [inhibitor, single point] |
| Cc1nn2c(c1-c1ccccc1C(C)C)N(Cc1ccc(C(=O)O)s1)CCC2 | inconclusive: 112 µM [inhibitor, partial curve, poor fit] |
| COc1cc2c(cc1-c1ccc(S(C)(=O)=O)cc1)OCC(C)(C)CC2CO (stereo not drawn) | inconclusive: 56.2 µM [inhibitor, partial curve, poor fit] |
| COc1ccc(-c2ccc3nnc(CNC(=O)c4ccc(F)c(Cl)c4)n3n2)cc1 | inconclusive: 28.2 µM [inhibitor, partial curve, poor fit] |
| Cn1nc(C2CCCN2)c2c(C(=O)NCc3cccs3)cc(C3CC3)nc21 (stereo not drawn) | inconclusive: 89.1 µM [inhibitor, single point] |
| Cc1nn2c(c1-c1ccccc1OCc1ccccc1)N(C(=O)COc1ccccc1)CCC2 | active: 39.8 µM |
| C#CCNC(=O)c1cc(-c2ccc(Cl)nc2)nc2c1cnn2C | inconclusive: 79.4 µM [inhibitor, partial curve] |
| Nc1nnnn1CC(=O)N[C@@H]1COCC[C@@H]1Oc1ccc(F)cc1 | inactive |
| CN(C)c1cccc(Nc2cc3c(cn2)CN(Cc2ccccc2)CCN3)c1 | active: 28.2 µM |
| CCc1ccc(C(=O)N2CCC(c3cc(-c4cccc(OC)c4)n[nH]3)CC2)cc1 | active: 44.7 µM |
| Cc1ccc(NC(=O)N2Cc3[nH]cnc3C[C@H]2c2nc(-c3ccc(Cl)cc3)no2)cc1 | active: 70.8 µM |
| O=C(CCC[C@H]1NC[C@@H]2CC1CN(Cc1ccccc1)C2)NCCCc1ccccc1 | inconclusive: 56.2 µM [inhibitor, partial curve, poor fit] |
| Cc1nn(-c2ccccc2)c(C)c1CN1CCCC12Cc1ccccc1CNC2=O (stereo not drawn) | inactive |
| O=C(N[C@@H]1CN(Cc2ccccn2)CCC[C@H]1O)c1ccc(OCc2ccccc2)cc1 | active: 89.1 µM |
| CCc1nc2c(c(-c3ccc(O)cc3)n1)CN(Cc1ccc(C(F)(F)F)cc1)CC2 | inconclusive: 50.1 µM [inhibitor, partial curve, poor fit] |
| C[C@H]1[C@@H]2[C@@H](O)C([C@H](C)C(=O)NCc3ccc(F)cc3)CC[C@@]2(C)CC[C@@H]1NC(=O)Cc1ccccc1 (stereo partly drawn) | inconclusive: 50.1 µM [inhibitor, partial curve, poor fit] |
| Cc1ccc(C(=O)Nc2cccn3nc(C4CCC4)nc23)cc1C | inconclusive: 50.1 µM [inhibitor, partial curve] |
